Measurements as given in PubChem BioAssay (NCATS).
The shares of active, inactive and inconclusive entries below differ from those in the screen. For some of these results: Potencies beside an inconclusive call are fits to weak or partial responses and may not hold up. For some of these results: A note “side channel” means that the fit belongs to a control or component signal, not to the main read-out. Calls of active or inactive are those of the source. Unless noted, calls come from the whole dose curve; as a rule, active = well fitted curve in either direction with a large enough effect (not every such curve was filed as active); inconclusive = small, poorly fitted or top-dose-only effect, or another doubt; inactive = flat fitted curve, though single readings scatter.

Assays:
[1] = AP1 Signaling Pathway (AID 357); conditions: ME-180 AP-1-bla reporter, EGF-induced, beta-lactamase ratio, 5 h; at 17.2 µM (top of the series) unless noted; note: top concentration of the series differs between compounds; % is set by controls: 0 for no effect and ±100 for the full control effect
Outline: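 ME-180 cells with beta-lactamase reporter under AP-1 response element, stimulated with EC50 EGF; compounds tested in titration series, 5 h at 37 °C. CCF4 substrate added 2.5 h at room temperature; 460/530 nm emission ratio gave %activity and AC50.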

[2] = NFAT Signaling Pathway (AID 444); conditions: Jurkat NFAT-bla M1, carbachol, beta-lactamase ratio, 5 h; at 17.2 µM (top of the series) unless noted;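 note: carbachol stimulus at about its EC50 of 1 µM final; % is set by controls: 0 for no effect and ±100 for the full control effect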
Outline: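 Read-out: CCF4 FRET ratio (460 nm/530 nm) after 1 h RT dye loading, used for %activity and AC50 from titration series. Cells: Jurkat NFAT-β-lactamase/M1 line, treated with compound plus 1 uM carbachol for 5 h, 37 °C.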

[3] = target: Mitogen-activated protein kinase 10 (Mus musculus) (UniProt Q61831); assay: JNK3 AlphaScreen Assay (AID 530); conditions: JNK3 lysate, c-Jun phosphorylation; activity change, negative = inhibition: at 57.1 µM (top of the series);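 note: kinase came from lysate of stimulated human HepG2 cells; signal reports phosphorylation of biotinylated GST-cJun 1-79 at Ser73 with 10 µM ATP; potency is the fitted concentration of half-maximal effect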
Outline: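 qHTS titrations with 15 min compound pre-incubation before adding ATP (10 uM final). Read-out: AlphaScreen of Ser73-phosphorylated biotin-GST-cJun using HepG2 lysate JNK3 activated by IL-1β and TNFα.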

[4] = qHTS Assay for Identification of Small Molecule Agonists for Hypoxia Response Element Signaling Pathway (AID 914; active = well fitted activation curve with a large enough effect in the signal ratio, with a control signal flat, not every such curve was filed as active; inconclusive = small, poorly fitted or top-dose-only effect, or effect the other way, or a change in a side signal; the % refers to the signal ratio; note: potency is the fitted concentration of half-maximal effect; for activation: top concentration of the series differs between compounds; % of control where 0% means no effect); conditions: ME-180 (cervical carcinoma) HRE-bla reporter, beta-lactamase ratio, CoCl2, 17 h; activation: hits give high values
Outline: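 Reporter activity (beta-lactamase, CCF4 460nm/530nm ratio) in HRE-bla ME-180 cells is recorded after 17 h compound exposure with EC50 CoCl2 at 37 degrees Celsius. AC50 values come from titration data.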

[5] = target: Ubiquitin carboxyl-terminal hydrolase 1 (Homo sapiens) (UniProt O94782); assay: Inhibitors of USP1/UAF1: Pilot qHTS (AID 504865; active = well fitted curve in the direction sought with a large enough effect; inconclusive = small, poorly fitted or top-dose-only effect, or another doubt; inactive = no such curve, though single readings can be large; an effect the other way counts as inactive or inconclusive;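 note: rhodamine fluorescence freed from ubiquitin-rhodamine substrate followed over time; potency is the fitted concentration of half-maximal effect; nearly all actives have a fitted effect of over 35% in size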)
Outline: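 Kinetic fluorescence assay: 1nM USP1/UAF1, 15 min compound preincubation, then 150nM Ub-Rho; 480/540 nm.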

[6] = target: 3',5'-cyclic-AMP phosphodiesterase 4B (Homo sapiens) (UniProt Q07343); assay: qHTS Assay for Inhibitors of PDE-IV (AID 607; active = well fitted activation curve with a large enough effect in the main read-out, with a control signal flat, not every such curve was filed as active; inconclusive = small, poorly fitted or top-dose-only effect, or effect the other way, or a change in a side signal; note: potency is the fitted concentration of half-maximal effect; for activation (PDE inhibition): % of control where 0% means no effect); conditions: HEK293 ACTOne CNG channel cells, membrane potential fluorescence; activation (PDE inhibition): at 22.9 µM (top of the series)
Outline: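 ACTOne HEK293 cells carry a modified cAMP-gated CNG channel and express endogenous PDE4; plated 1000 cells/well, compounds up to 22.9 uM final. Membrane-potential dye fluorescence (ex 535/em 590) was read; parental cells received 10 uM forskolin + 100 uM RO 20-1724.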

[7] = target: Cytochrome P450 2D6 (Homo sapiens) (UniProt P10635); assay: qHTS Assay for Inhibitors and Substrates of Cytochrome P450 2D6 (AID 891; active = well fitted curve in the direction sought with a large enough effect; inconclusive = small, poorly fitted or top-dose-only effect, or another doubt; inactive = no such curve, though single readings can be large; an effect the other way counts as inactive or inconclusive;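 note: luciferin methyl ether substrate demethylated by CYP2D6 with NADPH regeneration; potency is the fitted concentration of half-maximal effect; nearly all actives have a fitted effect of over 60% in size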); conditions: recombinant CYP2D6, luciferin-ME EGE luminescence; activity change, negative = inhibition: at 57.1 µM (top of the series)
Outline: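 Luminescent read-out of luciferin formed by 5 nM human CYP2D6 demethylating 30 uM Luciferin-ME EGE (Km level) over 60 min at room temperature after NADPH regeneration addition. Data normalized to full inhibition by 1.43 uM quinidine.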

[8] = target: Cytochrome P450 3A4 (Homo sapiens) (UniProt P08684); assay: qHTS Assay for Inhibitors and Substrates of Cytochrome P450 3A4 (AID 884; active = well fitted curve in the direction sought with a large enough effect; inconclusive = small, poorly fitted or top-dose-only effect, or another doubt; inactive = no such curve, though single readings can be large; an effect the other way counts as inactive or inconclusive; note: potency is the fitted concentration of half-maximal effect; nearly all actives have a fitted effect of over 50% in size)
Outline: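 Luminescent readout of luciferin produced by CYP3A4 (20 nM) dealkylation of Luciferin-PPXE, 25 uM (its KM). NADPH-driven reaction ran 60 min at RT after 10 min compound preincubation; data scaled to 57 uM ketoconazole as 100% inhibition.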

[9] = target: Lethal(3)malignant brain tumor-like protein 1 (Homo sapiens) (UniProt Q9Y468); assay: qHTS Assay for the Inhibitors of L3MBTL1: Hit Validation (AID 540279; active = well fitted curve in the direction sought with a large enough effect; inconclusive = small, poorly fitted or top-dose-only effect, or another doubt; inactive = no such curve, though single readings can be large; an effect the other way counts as inactive or inconclusive; note: potency is the fitted concentration of half-maximal effect; nearly all actives have a fitted effect of over 70% in size); conditions: L3MBTL1 methyl-lysine binding inhibition, biochemical qHTS
Outline: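 AlphaScreen displacement: 50 nM L3MBTL1 bound to 75 nM biotin-H3K9me1 peptide for 30 min, compound added for 30 min at room temperature, then beads at 10 ug/mL final for 30 min in the dark. Cefsulodin titration served as intraplate control.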

[10] = qHTS Assay for Identification of Small Molecule Antagonists for NFkB Signaling Pathway (AID 895; active = well fitted inhibition curve with a large enough effect in the signal ratio, with a control signal flat, not every such curve was filed as active; inconclusive = small, poorly fitted or top-dose-only effect, or effect the other way, or a change in a side signal; the % refers to the signal ratio; note: potency is the fitted concentration of half-maximal effect; for activity change, negative = inhibition: % is set by controls: 0 for no effect and ±100 for the full control effect); conditions: NFkB beta-lactamase reporter cells, FRET ratio 460/530, stimulated with 10 pM TNF alpha; activity change, negative = inhibition: at 38.3 µM (top of the series)
Outline: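 Beta-lactamase reporter read-out (460 and 530 nm emission ratio, 405 nm excitation, 2 hrs substrate loading RT) after 5 hr stimulation with 10 pM TNF alpha in compound-treated NFkB-bla ME-180 cells in low-serum medium.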

[11] = qHTS Assay for Identification of Small Molecule Agonists for Thrombopoietin (TPO) Signaling Pathway (AID 917; active = well fitted curve in the direction sought with a large enough effect; inconclusive = small, poorly fitted or top-dose-only effect, or another doubt; inactive = no such curve, though single readings can be large; an effect the other way counts as inactive or inconclusive; note: potency is the fitted concentration of half-maximal effect); conditions: TPO signaling pathway reporter cells, agonist qHTS, stimulated with TPO at its EC50; activity, positive = activation: at 38.5 µM (top of the series)
Outline: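 Quantitative HTS for pathway activators: compounds were pin-transferred onto IL-3-starved Ba/F3 cells expressing human TPO receptor, TPO was added at its EC50 (26 pM final), and after 24 hrs at 37 C reporter luciferase was measured.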

[12] = qHTS Assay for Identification of Small Molecule Antagonists for Thrombopoietin (TPO) Signaling Pathway (AID 918; active = well fitted curve in the direction sought with a large enough effect; inconclusive = small, poorly fitted or top-dose-only effect, or another doubt; inactive = no such curve, though single readings can be large; an effect the other way counts as inactive or inconclusive; note: nearly all actives have a fitted effect of over 60% in size; note: potency is the fitted concentration of half-maximal effect); conditions: TPO-dependent cell signaling reporter, antagonist mode; activity change, negative = inhibition: at 38.5 µM (top of the series)
Outline: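 Inhibition read as reduced luciferase luminescence after 24 h at 37 C in IL-3-deprived Ba/F3 cells carrying human TPO receptor and GPIIb-promoter reporter, stimulated with 26 pM TPO (final, its EC50) alongside compound.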

[13] = target: Muscarinic acetylcholine receptor M1 (Rattus norvegicus) (UniProt P08482); assay: qHTS Assay for Antagonists of Acetylcholine Muscarinic M1 Receptor: Measurement of IP-One Response (AID 944; active = well fitted curve in the direction sought with a large enough effect; inconclusive = small, poorly fitted or top-dose-only effect, or another doubt; inactive = no such curve, though single readings can be large; an effect the other way counts as inactive or inconclusive; note: potency is the fitted concentration of half-maximal effect; nearly all actives have a fitted effect of over 75% in size)
[14] = target: Cytochrome P450 2C9 (Homo sapiens) (UniProt P11712); assay: qHTS Assay for Inhibitors and Substrates of Cytochrome P450 2C9 (AID 883; active = well fitted curve in the direction sought with a large enough effect; inconclusive = small, poorly fitted or top-dose-only effect, or another doubt; inactive = no such curve, though single readings can be large; an effect the other way counts as inactive or inconclusive; note: potency is the fitted concentration of half-maximal effect; nearly all actives have a fitted effect of over 60% in size); conditions: recombinant CYP2C9, luciferin-H luminescence, 60 min; activity change, negative = inhibition: at 57.1 µM (top of the series)
Outline: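 Inhibition of CYP2C9 is scored as loss of luminescence, with 57uM sulphaphenazole defining 100% inhibition. Substrate Luciferin-H is used at 100uM, equal to its KM; enzyme at 10nM in 25mM KPO4, 60 min at 37C with NADPH regeneration.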
Tags give direction and shape of the fitted curve or compound fluorescence and quenching.

UniProt Q07343, sequence (Q07343 whole entry, looked up): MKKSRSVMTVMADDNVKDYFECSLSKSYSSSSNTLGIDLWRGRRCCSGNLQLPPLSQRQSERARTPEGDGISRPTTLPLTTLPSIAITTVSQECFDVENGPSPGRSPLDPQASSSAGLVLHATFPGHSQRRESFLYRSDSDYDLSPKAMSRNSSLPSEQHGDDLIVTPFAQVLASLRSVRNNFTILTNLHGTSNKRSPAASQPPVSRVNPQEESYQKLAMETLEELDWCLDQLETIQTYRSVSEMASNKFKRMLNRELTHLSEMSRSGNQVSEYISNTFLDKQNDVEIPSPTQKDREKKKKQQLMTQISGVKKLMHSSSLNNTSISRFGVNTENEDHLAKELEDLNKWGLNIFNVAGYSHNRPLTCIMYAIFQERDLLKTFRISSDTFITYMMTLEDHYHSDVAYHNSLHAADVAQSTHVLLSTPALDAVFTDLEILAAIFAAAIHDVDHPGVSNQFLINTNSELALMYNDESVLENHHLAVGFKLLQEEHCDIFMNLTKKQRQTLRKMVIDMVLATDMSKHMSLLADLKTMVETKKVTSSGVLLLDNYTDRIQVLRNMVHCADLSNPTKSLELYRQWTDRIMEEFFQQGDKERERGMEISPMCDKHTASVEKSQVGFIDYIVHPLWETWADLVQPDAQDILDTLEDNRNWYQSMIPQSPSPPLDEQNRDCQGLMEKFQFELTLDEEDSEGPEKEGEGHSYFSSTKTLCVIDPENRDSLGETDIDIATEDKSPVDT
UniProt P10635, sequence (P10635 whole entry, looked up): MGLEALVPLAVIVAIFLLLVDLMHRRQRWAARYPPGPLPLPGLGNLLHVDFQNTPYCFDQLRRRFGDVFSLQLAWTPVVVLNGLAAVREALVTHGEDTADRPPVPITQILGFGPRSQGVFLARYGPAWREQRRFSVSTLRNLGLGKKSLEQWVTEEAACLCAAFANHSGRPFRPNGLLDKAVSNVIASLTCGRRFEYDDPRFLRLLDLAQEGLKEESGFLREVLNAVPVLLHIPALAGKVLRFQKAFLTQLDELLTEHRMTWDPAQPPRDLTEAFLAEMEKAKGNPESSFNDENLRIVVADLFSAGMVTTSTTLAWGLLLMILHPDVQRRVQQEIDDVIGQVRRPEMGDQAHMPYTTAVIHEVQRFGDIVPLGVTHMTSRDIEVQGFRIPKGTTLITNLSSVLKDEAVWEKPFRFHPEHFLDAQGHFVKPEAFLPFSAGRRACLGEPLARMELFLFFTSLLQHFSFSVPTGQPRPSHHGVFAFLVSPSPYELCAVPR
UniProt Q9Y468, sequence (Q9Y468 whole entry, looked up): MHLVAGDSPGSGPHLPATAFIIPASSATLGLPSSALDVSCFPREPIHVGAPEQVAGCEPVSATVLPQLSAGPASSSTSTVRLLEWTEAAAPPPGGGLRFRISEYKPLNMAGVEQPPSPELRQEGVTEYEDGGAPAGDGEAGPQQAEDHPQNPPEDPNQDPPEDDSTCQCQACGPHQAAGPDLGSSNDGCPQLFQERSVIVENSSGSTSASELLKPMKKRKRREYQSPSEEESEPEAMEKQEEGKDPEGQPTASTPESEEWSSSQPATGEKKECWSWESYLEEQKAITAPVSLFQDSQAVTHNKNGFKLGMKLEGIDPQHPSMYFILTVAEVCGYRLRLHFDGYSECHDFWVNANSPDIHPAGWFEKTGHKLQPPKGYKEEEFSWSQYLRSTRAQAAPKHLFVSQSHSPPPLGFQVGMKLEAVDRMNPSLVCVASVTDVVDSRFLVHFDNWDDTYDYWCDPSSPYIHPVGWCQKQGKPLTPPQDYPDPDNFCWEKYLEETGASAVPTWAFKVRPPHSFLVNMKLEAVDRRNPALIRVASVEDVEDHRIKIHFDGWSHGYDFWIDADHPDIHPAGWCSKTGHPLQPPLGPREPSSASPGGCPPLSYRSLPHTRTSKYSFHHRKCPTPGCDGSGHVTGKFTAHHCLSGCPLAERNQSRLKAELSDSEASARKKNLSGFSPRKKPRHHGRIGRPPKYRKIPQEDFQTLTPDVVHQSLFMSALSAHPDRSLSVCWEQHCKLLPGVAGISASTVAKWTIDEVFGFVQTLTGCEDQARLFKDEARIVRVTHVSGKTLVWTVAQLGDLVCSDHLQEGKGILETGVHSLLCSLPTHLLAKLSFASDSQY
UniProt P08482, sequence (P08482 whole entry, looked up): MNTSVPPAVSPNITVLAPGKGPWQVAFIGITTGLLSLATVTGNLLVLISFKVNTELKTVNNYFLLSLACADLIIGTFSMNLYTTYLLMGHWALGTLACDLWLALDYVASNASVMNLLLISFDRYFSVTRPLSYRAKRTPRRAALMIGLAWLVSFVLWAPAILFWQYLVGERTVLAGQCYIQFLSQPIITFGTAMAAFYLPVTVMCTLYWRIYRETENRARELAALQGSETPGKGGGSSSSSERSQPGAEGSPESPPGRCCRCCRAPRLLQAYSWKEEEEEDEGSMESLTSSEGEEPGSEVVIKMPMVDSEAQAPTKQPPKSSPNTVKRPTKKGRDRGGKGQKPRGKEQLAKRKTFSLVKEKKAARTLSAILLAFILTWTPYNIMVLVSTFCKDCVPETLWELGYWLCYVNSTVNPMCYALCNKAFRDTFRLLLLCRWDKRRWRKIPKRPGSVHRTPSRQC
UniProt P11712, sequence (P11712 whole entry, looked up): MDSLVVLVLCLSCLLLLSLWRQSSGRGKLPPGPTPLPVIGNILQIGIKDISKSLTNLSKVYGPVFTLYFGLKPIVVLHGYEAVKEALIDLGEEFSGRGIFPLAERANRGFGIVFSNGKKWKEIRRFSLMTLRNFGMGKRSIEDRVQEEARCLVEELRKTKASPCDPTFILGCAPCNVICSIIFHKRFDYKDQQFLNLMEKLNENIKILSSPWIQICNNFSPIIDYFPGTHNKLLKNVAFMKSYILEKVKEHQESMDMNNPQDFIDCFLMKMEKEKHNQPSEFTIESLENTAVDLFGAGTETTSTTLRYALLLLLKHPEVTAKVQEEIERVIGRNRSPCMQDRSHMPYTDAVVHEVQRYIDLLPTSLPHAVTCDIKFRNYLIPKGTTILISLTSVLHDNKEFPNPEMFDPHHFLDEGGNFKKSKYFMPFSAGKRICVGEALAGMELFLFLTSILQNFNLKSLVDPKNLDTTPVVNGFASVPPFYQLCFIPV
UniProt P08684, sequence (P08684 whole entry, looked up): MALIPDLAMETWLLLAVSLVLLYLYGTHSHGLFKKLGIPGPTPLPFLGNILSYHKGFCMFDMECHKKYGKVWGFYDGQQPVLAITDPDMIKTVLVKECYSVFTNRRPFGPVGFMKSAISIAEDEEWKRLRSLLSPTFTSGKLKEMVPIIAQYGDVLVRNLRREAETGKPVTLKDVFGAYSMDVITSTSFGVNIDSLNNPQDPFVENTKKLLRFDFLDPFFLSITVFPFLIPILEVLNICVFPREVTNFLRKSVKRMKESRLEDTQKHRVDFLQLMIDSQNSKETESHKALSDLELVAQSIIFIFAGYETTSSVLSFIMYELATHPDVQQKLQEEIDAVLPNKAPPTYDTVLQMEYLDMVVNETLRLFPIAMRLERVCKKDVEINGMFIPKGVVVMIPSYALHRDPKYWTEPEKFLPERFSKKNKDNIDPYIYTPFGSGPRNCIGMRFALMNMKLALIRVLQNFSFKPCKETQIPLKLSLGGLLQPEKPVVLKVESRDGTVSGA
UniProt O94782, sequence (O94782 whole entry, looked up): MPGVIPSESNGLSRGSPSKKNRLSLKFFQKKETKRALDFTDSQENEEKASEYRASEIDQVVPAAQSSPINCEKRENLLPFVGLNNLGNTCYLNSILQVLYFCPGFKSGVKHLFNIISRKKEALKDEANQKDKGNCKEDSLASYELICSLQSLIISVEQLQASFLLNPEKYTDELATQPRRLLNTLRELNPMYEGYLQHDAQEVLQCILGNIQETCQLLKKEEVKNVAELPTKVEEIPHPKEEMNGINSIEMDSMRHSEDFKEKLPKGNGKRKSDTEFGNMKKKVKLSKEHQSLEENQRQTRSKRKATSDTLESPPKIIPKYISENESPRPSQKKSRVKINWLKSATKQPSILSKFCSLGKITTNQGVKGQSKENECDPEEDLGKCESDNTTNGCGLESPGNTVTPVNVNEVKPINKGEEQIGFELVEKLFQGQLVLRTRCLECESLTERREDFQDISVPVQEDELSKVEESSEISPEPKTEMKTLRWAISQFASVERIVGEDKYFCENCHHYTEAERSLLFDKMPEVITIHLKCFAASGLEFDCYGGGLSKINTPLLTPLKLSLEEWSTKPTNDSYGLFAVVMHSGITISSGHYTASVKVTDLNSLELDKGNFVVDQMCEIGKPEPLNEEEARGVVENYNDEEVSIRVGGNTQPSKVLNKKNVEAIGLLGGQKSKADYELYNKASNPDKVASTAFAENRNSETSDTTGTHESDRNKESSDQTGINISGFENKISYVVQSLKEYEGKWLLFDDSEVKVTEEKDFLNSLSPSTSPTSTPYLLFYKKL

With COc1cccc(-c2nccc(NCc3cccnc3)n2)c1 the activity change, negative = inhibition [1] was inactive: -20.9% [at 7.69 µM], the activity change, negative = inhibition [2] was inactive: 8.95% [at 7.69 µM] and the Potency [3] was inconclusive: 15.8 µM [inhibitor, partial curve].
For c1ccc(Nc2ncnc3ccc(-c4cccnc4)cc23)cc1, the activity change, negative = inhibition [1] was inconclusive: -102% [inhibitor] [at 7.69 µM], the activity change, negative = inhibition [2] was inconclusive: 31.7% [activator] [at 7.69 µM] and the Potency [4] was inconclusive: 5.01 µM [inhibitor, single point]. The Potency [5] was inconclusive: 56.2 µM [inhibitor, partial curve, poor fit].
In the case of COc1ccc2c(c1)N(CC[C@H]1CCCCN1C)c1ccccc1S2, the activity change, negative = inhibition [1] is reported as inconclusive: 71.1% [activator] [at 7.69 µM], the activity change, negative = inhibition [2] is reported as active: -80.4% [at 7.69 µM] and the Potency [6] is reported as “inactive”. The Potency [7] was active: 0.0501 µM.
With CN(C)c1ncc2nc(-c3cc(F)cc(F)c3)c(=O)n(Cc3cccs3)c2n1 the activity change, negative = inhibition [1] was inconclusive: 103% [activator] [at 7.69 µM], the activity change, negative = inhibition [2] was active: 110% [activator] [at 7.69 µM] and the Potency [3] was inconclusive: 0.2 µM [activator, full curve]. For the same compound, the Potency [8] was inconclusive: 5.01 µM [inhibitor, partial curve] and the Potency [4] was active: 0.126 µM.
With COc1ccc(C2=Nn3c(nnc3-c3ccccn3)SC2)cc1OC the activity change, negative = inhibition [1] was inactive: -18.1%, the activity change, negative = inhibition [2] was inactive: 23.1% and the activation [4] was inactive: -20.2%. For the same compound, the Potency [9] was inconclusive: 26.7 µM [inhibitor, single point].
For CC1(NC[C@@H](O)COc2cccc3[nH]ccc23)CCC(C(C)(C)NC(=O)CBr)CC1 (stereo partly drawn), the activity change, negative = inhibition [1] was inactive: 7.03% [at 38 µM], the activity change, negative = inhibition [2] was inconclusive: -30.5% [inhibitor] [at 38 µM] and the Potency [3] was inconclusive: 20 µM [activator, partial curve, poor fit]. For the same compound, the Potency [4] was inconclusive: 12.6 µM [inhibitor, partial curve].
With Oc1c(C(O)(c2ccccc2)c2ccc3ccccc3c2O)ccc2ccccc12 the activity change, negative = inhibition [1] was inconclusive: -35.6% [inhibitor] [at 7.69 µM], the activity change, negative = inhibition [2] was inconclusive: -85.9% [inhibitor] [at 7.69 µM] and the Potency [3] was inconclusive: 3.98 µM [inhibitor, partial curve]. The Potency [7] was inconclusive: 3.98 µM [inhibitor, single point] and the Potency [4] was inconclusive: 0.158 µM [cytotoxic, side channel, single point].
With Cc1c(C)c2c(c(C)c1O)CC[C@@](C)(CN1CCN(c3cc(N4CCCC4)nc(N4CCCC4)n3)CC1)O2 the activity change, negative = inhibition [1] was inconclusive: 48.6% [activator] [at 38 µM], the activity change, negative = inhibition [2] was inconclusive: -69.9% [inhibitor] [at 38 µM] and the Potency [3] was inconclusive: 12.6 µM [inhibitor, partial curve, poor fit]. The Potency [10] was inconclusive: 11.2 µM [cytotoxic, side channel, single point], the Potency [4] was inconclusive: 25.1 µM [inhibitor, single point] and the Potency [11] was inconclusive: 10 µM [inhibitor, partial curve]. The Potency [12] was active: 10 µM.
For O=C(O)/C=C\[C@H](O)c1ccc(Cl)cc1, the activity change, negative = inhibition [1] was inactive: 1.29% [at 38 µM], the activity change, negative = inhibition [2] was inactive: 8.91% [at 38 µM] and the Potency [6] was inconclusive: 3.16 µM [activator, partial curve, poor fit]. The Potency [10] was “inactive”, the activity change, negative = inhibition [12] was inconclusive: -4.25% [phenotype inactive] and the Potency [13] was inconclusive: 20 µM [inhibitor, partial curve, poor fit].
In the case of CS(=O)(=O)N1CCC2(CC1)CN(c1ccccn1)C2, the activity change, negative = inhibition [1] is reported as inactive: 2.96% [at 7.69 µM], the activity change, negative = inhibition [2] is reported as inactive: -0.983% [at 7.69 µM] and the Potency [6] is reported as “inactive”.
For CN(C)C(=O)c1ccc(-c2nc(NCc3ccccc3)c3ccccc3n2)cc1, the activity change, negative = inhibition [1] was inconclusive: -32.6% [inhibitor] [at 7.69 µM], the activity change, negative = inhibition [2] was inactive: 16% [at 7.69 µM] and the Potency [6] was inconclusive: 10 µM [activator, partial curve].
For Oc1c([C@H](Nc2ccccn2)c2ccccc2)ccc2cccnc12, the activity change, negative = inhibition [1] was inactive: -3.08% [at 7.69 µM], the activity change, negative = inhibition [2] was inconclusive: -76.3% [inhibitor] [at 7.69 µM] and the Potency [6] was “inactive”. The Potency [14] was inconclusive: 6.31 µM [inhibitor, single point].
For c1ccc(CNc2ncnc3ccc(-c4cccnc4)cc23)cc1, the activity change, negative = inhibition [1] was inconclusive: -94.3% [inhibitor] [at 7.69 µM], the activity change, negative = inhibition [2] was inconclusive: 35% [activator] [at 7.69 µM] and the Potency [6] was inconclusive: 10 µM [activator, partial curve].
With C1CCC(C(C[C@@H]2CCCCN2)C2CCCCC2)CC1 the activity change, negative = inhibition [1] was inconclusive: 32.4% [activator], the activity change, negative = inhibition [2] was inconclusive: -67.3% [inhibitor] and the Potency [6] was inconclusive: 15.1 µM [rising, partial curve].
